From a collection of fitness landscapes (doi:10.1126/science.1257360)
Some of the results follow.

B1: PhoQ; a variant is named by its letters at X, in order, P23837 (parent)
chain: MKKLLRLFFPLSLRVRFLLATAAVVLVLSLAYGMVALIGYSVSFDKTTFRLLRGESNLFYTLAKWENNKLHVELPENIDKQSPTMTLIYDENGQLLWAQRDVPWLMKMIQPDWLKSNGFHEIEADVNDTSLLLSGDHSIQQQLQEVREDDDDAEMTHSVAVNVYPATSRMPKLTIVVVDTIPVELKSSYMVWSWFIYVLSANLLLVIPLLWVAAWWSLRPIEALAKEVRELEEHNRELLNPATTRELTSLVRNLNRLLKSERERYDKYRTTLTDLTHSLKTPLXXLQXXLRSLRSEKMSVSDAEPVMLEQISRISQQIGYYLHRASMRGGTLLSRELHPVAPLLDNLTSALNKVYQRKGVNISLDISPEISFVGEQNDFVEVMGNVLDNACKYCLEFVEISARQTDEHLYIVVEDDGPGIPLSKREVIFDRGQRVDTLRPGQGVGLAVAREITEQYEGKIVAGESMLGGARMEVIFGRQHSAPKDE

Variants of: B1
Assay: enrichment ratio after two sorts for PhoP signalling (ratio (wild type AVST 3.29)); higher = more functional
Conditions: with PhoP (E. coli)

Variant	enrichment ratio
REPS	≤ 0.25
GDWW	≤ 0.25
LCMG	≤ 0.25
HHHV	≤ 0.25
PSLC	≤ 0.25
WHAA	≤ 0.25
GEPH	≤ 0.25
ILPP	≤ 0.25
IDYD	≤ 0.25
GTWL	≤ 0.25
QDKC	≤ 0.25
NMIY	≤ 0.25
PWYC	≤ 0.25
TDQR	≤ 0.25
AAGL	8.23
DKET	≤ 0.25
GHAM	≤ 0.25
KFMA	≤ 0.25
GEQG	≤ 0.25
PQSA	≤ 0.25
VQQG	≤ 0.25
YGSS	≤ 0.25
FTQQ	≤ 0.25
AFNN	≤ 0.25
QEVV	≤ 0.25

Variant	enrichment ratio
AWFE	≤ 0.25
DSQS	≤ 0.25
MEII	2.69
CQTL	≤ 0.25
QGDE	4.94
ISRV	≤ 0.25
DEMW	≤ 0.25
NMWK	≤ 0.25
ISFW	≤ 0.25
QYRD	≤ 0.25
QSKS	≤ 0.25
GDVG	≤ 0.25
TRKN	≤ 0.25
YRDA	≤ 0.25
FREC	≤ 0.25
IGKV	≤ 0.25
NHMV	≤ 0.25
GHCG	≤ 0.25
LNMG	≤ 0.25
DGWG	≤ 0.25
AKEY	≤ 0.25
EKHV	≤ 0.25
GHRW	≤ 0.25
YGVA	≤ 0.25
HQMR	≤ 0.25

Variant	enrichment ratio
FMQL	≤ 0.25
QCAY	≤ 0.25
ELGN	≤ 0.25
EGHV	≤ 0.25
LCAD	≤ 0.25
LKGC	≤ 0.25
MKPL	≤ 0.25
ILRS	≤ 0.25
NHYH	≤ 0.25
LCKD	≤ 0.25
YLVA	≤ 0.25
NATN	≤ 0.25
AKKT	≤ 0.25
DSSF	≤ 0.25
AKVL	5.91
WCRC	≤ 0.25
HPVD	≤ 0.25
QNLR	≤ 0.25
RSPP	≤ 0.25
HQLN	≤ 0.25
QLWA	≤ 0.25
WHAR	≤ 0.25
FGHP	≤ 0.25
MHCP	≤ 0.25
ACVL	5.91

Variant	enrichment ratio
SDLY	0.38
VRVL	≤ 0.25
NQQD	≤ 0.25
DQPT	≤ 0.25
WTCW	≤ 0.25
WPCC	≤ 0.25
STAR	0.472
LSDQ	≤ 0.25
VSLW	≤ 0.25
GHWY	≤ 0.25
QVWI	≤ 0.25
IVHN	≤ 0.25
RCWD	≤ 0.25
QSAK	≤ 0.25
ASDY	≤ 0.25
MENM	≤ 0.25
EGQI	≤ 0.25
HYHF	≤ 0.25
LMHN	≤ 0.25
FRIQ	≤ 0.25
KAKL	≤ 0.25
ETQE	≤ 0.25
RCEW	≤ 0.25
